# Measured values: paper PMC4336329 (PLoS ONE, 2015)
# Screen size: about 310,000 compounds; about 2,200 (0.71%) showed an effect of 50% or more. Effects have a minus sign here. The list shows a part of the results.
# Molecular target: human ether-à-go-go-related gene (hERG) potassium channel (human, UniProt Q12809)
# Assay: primary screen, population patch clamp on CHO cells stably expressing hERG
# Sequence of human ether-à-go-go-related gene (hERG) potassium channel (Q12809 whole entry, looked up): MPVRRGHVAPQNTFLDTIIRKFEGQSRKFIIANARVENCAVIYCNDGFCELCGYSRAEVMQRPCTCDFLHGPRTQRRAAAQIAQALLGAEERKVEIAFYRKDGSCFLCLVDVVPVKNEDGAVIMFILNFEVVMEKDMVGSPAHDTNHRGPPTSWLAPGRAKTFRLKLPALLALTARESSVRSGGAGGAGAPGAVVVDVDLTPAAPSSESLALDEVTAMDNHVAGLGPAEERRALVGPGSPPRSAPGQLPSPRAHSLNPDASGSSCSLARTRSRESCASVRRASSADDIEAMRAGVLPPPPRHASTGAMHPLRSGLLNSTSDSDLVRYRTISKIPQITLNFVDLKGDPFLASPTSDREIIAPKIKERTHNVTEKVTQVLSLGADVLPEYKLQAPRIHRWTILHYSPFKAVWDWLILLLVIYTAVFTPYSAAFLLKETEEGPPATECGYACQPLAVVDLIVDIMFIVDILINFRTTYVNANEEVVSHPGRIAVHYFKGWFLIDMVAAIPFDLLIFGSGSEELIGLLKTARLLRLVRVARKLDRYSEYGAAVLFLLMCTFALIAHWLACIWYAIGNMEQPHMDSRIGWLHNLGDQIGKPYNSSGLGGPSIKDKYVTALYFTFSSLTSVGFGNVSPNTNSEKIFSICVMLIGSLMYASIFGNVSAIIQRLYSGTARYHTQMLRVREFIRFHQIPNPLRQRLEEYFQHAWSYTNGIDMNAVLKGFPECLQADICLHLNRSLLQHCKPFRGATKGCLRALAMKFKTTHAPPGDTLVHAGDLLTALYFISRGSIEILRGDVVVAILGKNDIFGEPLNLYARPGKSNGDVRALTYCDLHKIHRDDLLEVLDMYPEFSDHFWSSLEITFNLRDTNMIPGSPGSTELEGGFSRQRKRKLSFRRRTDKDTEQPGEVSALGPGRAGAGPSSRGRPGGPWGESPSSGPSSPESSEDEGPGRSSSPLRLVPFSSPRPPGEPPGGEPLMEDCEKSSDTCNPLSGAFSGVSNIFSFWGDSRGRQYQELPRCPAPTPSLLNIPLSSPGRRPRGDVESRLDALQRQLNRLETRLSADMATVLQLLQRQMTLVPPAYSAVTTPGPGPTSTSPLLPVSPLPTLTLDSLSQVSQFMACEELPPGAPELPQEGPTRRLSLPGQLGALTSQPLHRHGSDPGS
row,Structure (SMILES),"hERG current change (%, negative = inhibition) at 1uM [%]"
1,CCOC(=O)C(/C=C(\C#N)C(=O)OCC)=C(/N)N1CCN(c2ccc(OC)cc2)CC1,7.82
2,COc1ccc(N(C(=O)c2ccco2)C(C(=O)NC2CCCC2)c2cccs2)c(OC)c1 (stereo not drawn),9.69
3,CCN(CC)S(=O)(=O)c1cc(C(=O)O)c(Cl)cc1Cl,15.3
4,CCOc1ccc(N2C(=O)c3cccnc3C2Nc2ccc(F)cc2)cc1 (stereo not drawn),-1.95
5,CCOc1ccc(C(=O)NCC(=O)NCC(c2ccc(OC)cc2)N2CCCC2)cc1 (stereo not drawn),8.63
6,CC12CC3CC(C)(C1)CC(C(=O)NCc1cccnc1)(C3)C2,6.55
7,CC(=O)Nc1ccc(S(=O)(=O)N2CCSC2c2ccc(C)cc2)cc1 (stereo not drawn),16.2
8,CCCS(=O)(=O)Nc1ccc2cn[nH]c2c1,6.45
9,c1ccc(CNc2ncnc3c2cnn3Cc2ccccc2)cc1,-4.81
10,CCN(CC)S(=O)(=O)c1ccc(/C=C/C(=O)OCC(=O)NCc2cccs2)cc1,7.68
11,Cc1ccc(S(=O)(=O)Nc2cc(=O)[nH]c3c2CCC3)cc1,10.1
12,COCCCn1c(SCC(=O)NC2CCS(=O)(=O)C2)nnc1-c1ccc(Cl)cc1 (stereo not drawn),8.65
13,CC(=O)N/C(=C\c1ccccc1)C(=O)OCC(=O)c1ccc(F)cc1,6.18
14,O=C(Nc1ccc(Cl)cc1)N(C1=NCCC1)c1ccc(OC(F)F)cc1,8.08
15,O=C(NC(Cc1ccccc1)C(=O)O)/C(=C/c1ccco1)NC(=O)c1cccc(Br)c1 (stereo not drawn),12
16,CC1CCN(C(=S)NC2CC3CCC2C3)CC1 (stereo not drawn),6.21
17,O=C(CSc1nc(=O)n2cc(Cl)ccc2n1)NCCc1ccccc1,-13.6
18,COc1ccccc1N1CCN(c2ccc3ccccc3n2)CC1,3.32
19,COc1ccccc1C(C)NCC(=O)Nc1ccccc1C(F)(F)F.O=C(O)C(=O)O (stereo not drawn),8.84
20,CCCc1nn(C)c(C(=O)Nc2cccc3ccccc23)c1Cl,10.4
21,CC(C)c1ccc(/C=C2\SC(=O)N(CC(=O)NC3CCS(=O)(=O)C3)C2=O)cc1 (stereo not drawn),13.6
22,CCC(=O)NCCc1nc2cc(NC(=O)Nc3ccccc3)ccc2n1C,13.5

row,Structure (SMILES),"hERG current change (%, negative = inhibition) at 1uM [%]"
1,O=C(OCc1csc(Nc2ccccc2)n1)c1ccc(Cl)cc1,3.45
2,C=CCNC(=O)c1nn2cccnc2c1Cl,8.12
3,COC(=O)Cn1cc(C(=O)c2cccs2)c2ccccc21,5.94
4,COc1ccc(-c2nnc(SCc3ccc(C(=O)O)cc3)o2)cc1OC,13.4
5,Cc1ccccc1Cn1cc(NC(=O)CSc2nc3c(c(C(F)(F)F)n2)CCc2ccccc2-3)cn1,3.67
6,CC(=O)c1c(C)[nH]c(C(=O)COc2cc(C)ccc2C(C)C)c1C,13.5
7,O=C(O)CC(NC(=O)C12CC3CC(CC(C3)C1)C2)c1ccc(OC2CCCC2)cc1 (stereo not drawn),10.7
8,COc1ccccc1C1(O)CC2CCC(C1)N2S(=O)(=O)c1ccc(C(C)=O)cc1 (stereo not drawn),8.81
9,O=C(Nc1ccc(Cc2ccc(NC(=O)C3CC3)c(O)c2)cc1O)C1CC1,9.78
10,CC(C)Nc1nc(-c2ccncc2)nc(-c2ccc(Cl)cc2)c1C#N,10.4
11,Cc1ccc(C(=O)Nc2cccc(-c3ccc(N4CCOCC4)nn3)c2)cc1C,13.4
12,COC(=O)COc1ccc2occ(C(C)=O)c2c1,7.84
13,NC(=O)C1CCCN(C(=O)c2ccc3oc(Cc4ccc(Cl)cc4)nc3c2)C1 (stereo not drawn),17.1
14,O=c1sc2ccccc2c(N2CCCCC2)c1[N+](=O)[O-],2.27
15,O=C(Nc1nccs1)C1CC(=O)N(c2ccc(F)cc2)C1 (stereo not drawn),13.7
16,O=C(CCCC(=O)c1ccccc1)NCCc1ccccc1F,12.4
17,O=C(c1cnccn1)N1CCN(c2ccccc2)CC1,3.46
18,Cc1cccc(NC(=S)N(C)C2CCCCC2)c1,7.08
19,COc1ccc(NC(=O)NC(C)c2ccccc2)cc1 (stereo not drawn),15
20,CCN(CC(=O)Nc1c(F)cccc1F)C(=O)CNC(=O)c1ccc2ccccc2c1,-0.444
21,COc1ccc(S(=O)(=O)N2CCOCC2)cc1NC(=O)CC1CCCC1,3.14
22,CCCCN(C(=O)CN1C(=O)C2CCCCC2C1=O)c1c(N)n(Cc2ccccc2)c(=O)[nH]c1=O (stereo not drawn),11.9

row,Structure (SMILES),"hERG current change (%, negative = inhibition) at 1uM [%]"
1,O=C(c1ccc2c(=O)n3c(nc2c1)CCCCC3)N1CCN(C(c2ccccc2)c2ccccc2)CC1,-9.16
2,CCCCC(=O)NCCNC(=O)c1cc(OCC(F)(F)F)ccc1OCC(F)(F)F,10.3
3,Cc1cccc(NC(=O)C2C3C=CC4(O3)C2C(=O)N(CCCN2CCCC2)C4C(=O)NC2CCCC(C)C2C)c1 (stereo not drawn),8.54
4,Cc1cc(C)nc(SCc2nnc(SCC(=O)Nc3ccc(C)c(C)c3)n2Cc2ccco2)n1,5.47
5,Cc1c(Cl)cccc1NC(=O)CNC(=O)c1ccco1,12.7
6,CCCN(CCC)C(=O)CSc1ncccc1C(=O)O,11.6
7,Cc1ccc2nc(SCCCCOc3ccccc3)[nH]c2c1,7.22
8,COc1ccc(C)c2sc(N(CCN(C)C)C(=O)c3ccc4ccccc4c3)nc12.Cl,14.5
9,CCOc1ccc(C(=O)NCC(=O)OCC(=O)N2CCC(C)CC2)cc1,-9.02
10,O=C(C(c1ccccc1)c1ccccc1)N1CCOCC1,6.83
11,COc1ccc(/C(N)=N/OC(=O)c2ccc3c(c2)OCO3)cc1OC,5.81
12,CCOC(=O)c1cc2c(C)[nH]c(C)c2cc(C(=O)OCC)c1=O,7.73
13,CCS(=O)(=O)N1Cc2ccccc2CC1C(=O)OCC(=O)N(C(C)C)C(C)C (stereo not drawn),9.39
14,COc1ccccc1NC1=NC(C)(C)N=C(N)N1,15
15,CN1C(=O)/C(=C/c2ccccc2Cl)Sc2ccc(C(=O)NCc3cccnc3)cc21,-6.36
16,CCCN(C(=O)COC(=O)CNC(=O)c1ccc2ccccc2c1)c1c(N)n(Cc2ccccc2)c(=O)[nH]c1=O,9.61
17,C/C=C(\C)CN1CCN(c2ccccc2F)CC1,5.34
18,O=[N+]([O-])c1cccc(/C=N/Nc2nccnc2Cl)c1,-3.54
19,COc1ccccc1CNc1ncnc2sccc12,21.3
20,Cc1ccc(OCc2nnc(SCC(N)=O)n2N)cc1,9.26
21,COC(=O)[C@@]1(Cc2ccc(F)cc2)[C@H]2c3cc(C(=O)N(C)C)n(Cc4ccccc4)c3C[C@H]2CN1C(=O)c1ccccc1,3.31
22,CN(C)S(=O)(=O)c1ccc(NC(=O)c2cc3ccccc3o2)cc1,8.55

row,Structure (SMILES),"hERG current change (%, negative = inhibition) at 1uM [%]"
1,C[C@H](N)C(=O)OCc1ccc([N+](=O)[O-])cc1.O=S(=O)(O)c1ccccc1,15.4
2,O=C(O)CC(NS(=O)(=O)c1c(F)cc(F)cc1Br)c1ccccc1Cl (stereo not drawn),1.1
3,CCOC(=O)c1nc(C)n(-c2cc(OC)c(Cl)cc2Cl)n1,12.7
4,CC(C)C(NC(=O)c1ccc(S(=O)(=O)N2CCOCC2)cc1)c1nc2ccccc2[nH]1 (stereo not drawn),-11.3
5,C=CCN(C(=O)c1csnn1)C(C(=O)NC1CCCCC1)c1ccc(F)cc1 (stereo not drawn),1.8
6,COc1ccc(S(=O)(=O)N2CCOCC2)cc1NC(=O)CCNC(=O)c1ccc([N+](=O)[O-])cc1,-2.8
7,Cc1c(CN2CCCC(CO)(Cc3cccc(Cl)c3)C2)cnn1C (stereo not drawn),9.47
8,CCOC(=O)CSc1nnc(CSc2nc3ccccc3s2)n1C,6.96
9,CCOC(=O)/C(C#N)=C/Nc1cc(C(C)(C)C)sc1C(C)=O,19
10,COC(=O)C1=C(N)Oc2cc(C)n(CCN3CCOCC3)c(=O)c2C1c1cccnc1 (stereo not drawn),12.5
11,CC(C)(C)OC(=O)N1CCC(c2c(C(=O)O)cnn2-c2ccccc2)CC1,15.7
12,COc1cccc(CN2CC(C(=O)N(C)Cc3ccc(C)cc3)CCC2=O)c1 (stereo not drawn),13.5
13,Clc1ccc(Cc2nc(-c3cccnc3)no2)cc1,-3.87
14,COc1ccsc1C(=O)NCCN1CCOCC1,-3.57
15,Cc1cccc(OCC(=O)Nc2ccc3c(c2)nc(CN2CCCCC2)n3C)c1.Cl,-3.37
16,CC(=O)c1ccc(NC(=O)C2CC(c3ccc(F)cc3)=NO2)cc1 (stereo not drawn),6.2
17,CN1C(=O)C2(OCC(C)([N+](=O)[O-])CO2)c2ccccc21 (stereo not drawn),12.5
18,C#CCNC(=O)C1=C[C@H](C2CCCCC2)[C@@H](CCCO)[C@H](OCC)O1,15.9
19,CC(=O)N1CCOc2ccc(S(=O)(=O)N3CCC(C(=O)NCc4ccc(C)cc4)CC3)cc21,15.7
20,CN(C)c1cc[n+](Cc2ccccc2)cc1.[Br-],2.05
21,COc1cc2nc(Nc3ccc(C)c(C)c3)nc(N)c2cc1OC,4.31
